60 compounds from the supplement of paper PMC9446081 can be followed below.

The structures appear in SMILES notation. Out of some 39,000 compounds screened, about 220 (0.56%) showed activity. The list shows a part of the results.
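Further: static incubation at 37 °C against the wild-type strain, values averaged over two biological replicates.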

The subject of the assay is Escherichia coli K-12 BW25113. As to the kind of experiment: relative growth (OD600 normalised to plate interquartile mean) (fraction); higher = less growth inhibition, active = 0.2 or less. The note with it: 50 µM; LB; incubation time: overnight (16-24 h).
As for `C[C@H]1CN([C@@H](C)CO)C(=O)Cc2cc(NC(=O)C3CCCCC3)ccc2O[C@@H]1CN(C)C(=O)Nc1cccc2ccccc12`, the relative growth was inactive: 1.03.

As for `Cc1ccccc1S(=O)(=O)N1C[C@@H](O)COC[C@@H]2O[C@@H](CC(=O)NCc3ccccc3Cl)CC[C@H]21`, the relative growth is inactive: 1.02.

For the compound `CN(C)[C@@H]1C(=O)[C@@H](C(N)=O)C(=O)[C@@]2(O)C(=O)[C@H]3C(=O)c4c(O)ccc(Cl)c4[C@@H](O)[C@H]3C[C@@H]12`, the relative growth is active: 0.0324.

On to `Cc1ccc(S(=O)(=O)N(C)C[C@@H]2Oc3c(NC(=O)Nc4cccc5ccccc45)cccc3C(=O)N([C@H](C)CO)C[C@@H]2C)cc1`, for which the relative growth was inactive: 1.

In the case of `C[C@@H]1CCCCO[C@H](CN(C)C(=O)Nc2ccc(F)cc2)[C@@H](C)CN([C@H](C)CO)C(=O)c2cc(NC(=O)Nc3ccc(F)cc3)ccc2O1`, the relative growth is inactive: 1.03.

Take `C[C@@H]1CCCCO[C@@H](CN(C)Cc2ccc(C(=O)O)cc2)[C@H](C)CN([C@H](C)CO)C(=O)c2cc(NC(=O)C3CCCCC3)ccc2O1`: the relative growth is inactive: 1.01.

For the compound `COCC#Cc1ccc2c(c1)O[C@@H](CN(C)C(=O)c1ccccc1F)[C@@H](C)CN([C@H](C)CO)S2(=O)=O`, the relative growth is inactive: 1.01.

Take `Cc1noc(C)c1NC(=O)N(C)C[C@@H]1Oc2c(NC(=O)c3ccncc3)cccc2C(=O)N([C@H](C)CO)C[C@H]1C`: the relative growth is inactive: 0.995.

`COc1cccc(C#Cc2ccc3c(c2)O[C@@H](CN(C)C(=O)c2ccccn2)[C@H](C)CN([C@@H](C)CO)S3(=O)=O)c1`: the relative growth was inactive: 0.992.

Take `COc1ccc(C#Cc2ccc3c(c2)O[C@H](CN(C)C(C)=O)[C@H](C)CN([C@@H](C)CO)S3(=O)=O)cc1`: the relative growth is inactive: 1.03.

In the case of `C[C@H]1CN([C@@H](C)CO)C(=O)c2cccc(NC(=O)CCCCCC(=O)Nc3ccccc3N)c2O[C@@H]1CN(C)Cc1ccc(C(F)(F)F)cc1`, the relative growth was inactive: 1.01.

With `COc1ccc(S(=O)(=O)Nc2ccc3c(c2)C(=O)N([C@H](C)CO)C[C@@H](C)[C@@H](CN(C)C(=O)NC(C)C)O3)cc1`, the relative growth was inactive: 0.919.

As for `COc1ccc([Si](C)(C)[C@@H]2[C@@H](CC(=O)N(CCO)Cc3ccccc3)O[C@]3(C(=O)N(Cc4cccc(N5CCC5=O)c4)c4ccccc43)[C@H]2C)cc1`, the relative growth is inactive: 1.02.

Regarding `COc1ccc(NC(=O)N(C)C[C@H]2Oc3ncc(C#CC(C)C)cc3C(=O)N([C@@H](C)CO)C[C@@H]2C)cc1`, the relative growth was inactive: 1.02.

In the case of `C[C@@H]1CN([C@@H](C)CO)C(=O)Cc2cc(NS(=O)(=O)c3cn(C)cn3)ccc2O[C@H]1CN(C)Cc1ccc(C(=O)Nc2ccccc2N)cc1`, the relative growth was inactive: 1.

Turning to `CN1CCN(C(=O)c2nn(C)c3c2CCN(S(C)(=O)=O)C3)CC1`, the relative growth is inactive: 0.998.

Take `CCCNC(=O)Nc1ccc2c(c1)OC[C@H](C)N(Cc1ccc(-c3ccccn3)cc1)C[C@@H](C)[C@@H](OC)CN(C)C2=O`: the relative growth is inactive: 1.02.

With `O=C(C[C@H]1CC[C@@H](NC(=O)Cc2ccccn2)[C@H](CO)O1)NCCc1ccncc1`, the relative growth was inactive: 0.99.

As for `CCCN(CCC)[NH2+][O-]`, the relative growth is inactive: 1.01.

With `O=C(C[C@H]1NC(=O)NC1=O)NCc1[nH]nc2c1CCC2`, the relative growth is inactive: 0.973.

Consider `CN(C)CCCNC(=O)C[C@H]1CC[C@@H]2[C@H](COc3ccc(NC(=O)c4ccc5c(c4)OCO5)cc3C(=O)N2C)O1`, for which the relative growth is inactive: 0.994.

Consider `C[C@@H]1CN([C@H](C)CO)C(=O)c2cccc(NS(=O)(=O)c3ccccc3)c2O[C@H]1CN(C)Cc1ccc(-c2ccccc2)cc1`, for which the relative growth was inactive: 1.04.

As to `Cc1noc(C)c1NC(=O)Nc1ccc2c(c1)C(=O)N([C@@H](C)CO)C[C@H](C)[C@H](CN(C)S(=O)(=O)c1cccs1)OCCCC[C@@H](C)O2`, the relative growth is inactive: 0.995.

In the case of `COc1ccccc1-c1cnc2c(c1)C(=O)N([C@H](C)CO)C[C@H](C)[C@H](CN(C)C(=O)c1cccnc1)O2`, the relative growth is inactive: 0.993.

Regarding `COc1ccc(NC(=O)N(C)C[C@@H]2OCCCC[C@@H](C)Oc3ccc(NS(=O)(=O)c4cccs4)cc3C(=O)N([C@H](C)CO)C[C@H]2C)cc1`, the relative growth is inactive: 1.

For `COc1ccc(S(=O)(=O)Nc2ccc3c(c2)CC(=O)N([C@H](C)CO)C[C@@H](C)[C@@H](CN(C)C)O3)cc1`, the relative growth is inactive: 0.987.

Turning to `COc1ccc(CN(C)C[C@@H]2OCCCC[C@H](C)Oc3ccc(NC(=O)Nc4ccc5c(c4)OCO5)cc3C(=O)N([C@H](C)CO)C[C@@H]2C)cc1`, the relative growth was inactive: 0.974.

In the case of `O=C(O)[C@H](O)c1ccccc1`, the relative growth is inactive: 1.01.

Regarding `COc1cc(C(=O)NCc2ccc(OCCN(C)C)cc2)cc(OC)c1OC.Cl`, the relative growth is inactive: 1.02.

As to `CCOC(=O)N1C(=O)[C@@]2(CCCOC2)N(c2ccc(C)cc2)C1=S.CCOC(=O)N1C(=O)[C@]2(CCCOC2)N(c2ccc(C)cc2)C1=S`, the relative growth is inactive: 1.02.

Turning to `CCOC(=O)[C@H](CCc1ccccc1)N[C@@H](C)C(=O)N1C(=O)N(C)C[C@H]1C(=O)O`, the relative growth is inactive: 1.02.

For `C[C@@H]1CCCCO[C@@H](CN(C)C(=O)Nc2ccccc2)[C@H](C)CN([C@H](C)CO)C(=O)c2cc(NC(=O)C3CCCCC3)ccc2O1`, the relative growth is inactive: 1.01.

Take `C[C@H](CO)N1C[C@H](C)[C@@H](CN(C)Cc2ccncc2)Oc2ccc(NC(=O)Cn3cnnn3)cc2CC1=O`: the relative growth was inactive: 1.

Regarding `COCC#Cc1ccc2c(c1)O[C@H](CN(C)Cc1ccccc1F)[C@H](C)CN([C@H](C)CO)S2(=O)=O`, the relative growth is inactive: 1.02.

With `Cc1ccc(S(=O)(=O)Nc2ccc3c(c2)C(=O)N([C@H](C)CO)C[C@@H](C)[C@@H](CN(C)C(=O)C2CCCCC2)OCCCC[C@H](C)O3)cc1`, the relative growth is inactive: 1.

Turning to `C[C@H]1CCCCO[C@H](CN(C)Cc2ccc3c(c2)OCO3)[C@@H](C)CN([C@@H](C)CO)C(=O)c2cc(NS(=O)(=O)c3ccccc3)ccc2O1`, the relative growth was inactive: 1.04.

Regarding `OC[C@H]1O[C@@H](Oc2cccc(O)c2CCCc2ccc(O)cc2)[C@@H](O)[C@@H](O)[C@@H]1O`, the relative growth was inactive: 1.02.

On to `COc1ccc(S(=O)(=O)N(C)C[C@@H]2OCCCC[C@@H](C)Oc3ccc(NS(=O)(=O)c4ccc(Cl)cc4)cc3C(=O)N([C@@H](C)CO)C[C@@H]2C)cc1`, for which the relative growth was inactive: 1.03.

Take `COc1ccc2c3c([nH]c2c1)[C@H](CO)N(C[C@]13CN(Cc2ccccc2Cl)C1)S(=O)(=O)c1cn(cn1)C`: the relative growth is inactive: 0.977.

In the case of `COCC#Cc1ccc2c(c1)O[C@@H](CN(C)S(=O)(=O)c1ccc(OC)cc1)[C@H](C)CN([C@H](C)CO)S2(=O)=O`, the relative growth is inactive: 1.04.

Consider `C[C@H]1CN([C@@H](C)CO)C(=O)c2cc(NC(=O)Nc3ccc(C(F)(F)F)cc3)ccc2O[C@H]1CN(C)C(=O)Nc1cccc2ccccc12`, for which the relative growth is inactive: 1.02.

With `C[C@@H]1CN([C@@H](C)CO)S(=O)(=O)c2ccc(/C=C/c3ccccc3)cc2O[C@@H]1CN(C)C(=O)CN1CCOCC1`, the relative growth is inactive: 1.02.

Consider `Cc1ccc(S(=O)(=O)N(C)C[C@@H]2Oc3ccc(NC(=O)Cn4cnnn4)cc3CC(=O)N([C@H](C)CO)C[C@H]2C)cc1`, for which the relative growth is inactive: 1.01.

As to `C[C@H](CO)N1C[C@H](C)[C@H](CN(C)C(=O)Nc2ccc3c(c2)OCO3)OCCCC[C@H](C)Oc2ccc(NS(=O)(=O)c3ccccc3)cc2C1=O`, the relative growth is inactive: 1.04.

On to `CCCCCCCCC=CCCCCCCCC(=O)[O-].[NH3+]CCO`, for which the relative growth was inactive: 0.665.

On to `CCNC(=O)C[C@H]1CC[C@@H](NC(=O)C2CCOCC2)[C@H](CO)O1`, for which the relative growth is inactive: 0.992.

For `C[C@H](CO)N1C[C@H](C)[C@@H](CN(C)S(C)(=O)=O)Oc2ccc(NC(=O)Nc3ccccc3)cc2CC1=O`, the relative growth is inactive: 0.981.

`COc1ccc(NC(=O)N(C)C[C@@H]2Oc3c(NC(=O)Nc4cccc5ccccc45)cccc3C(=O)N([C@H](C)CO)C[C@H]2C)cc1`: the relative growth is inactive: 1.02.

Regarding `CC(C)(C)NC(=O)C1CCC2C3CCC4NC(=O)C=CC4(C)C3CCC12C` (stereo not given), the relative growth was inactive: 1.1.

Consider `C[C@H](CO)N1C[C@H](C)[C@H](CN(C)C(=O)Nc2ccc(C(F)(F)F)cc2)OCCCC[C@H](C)Oc2ccc(NS(=O)(=O)c3ccc(Cl)cc3)cc2C1=O`, for which the relative growth is inactive: 1.

For `COc1ccc(CNC(=O)C[C@@H]2CC[C@H]3[C@H](COc4ccc(NC(=O)C(C)C)cc4C(=O)N3C)O2)cc1`, the relative growth was inactive: 0.982.

In the case of `NCc1ccc(C(=O)N2CCCCC2)cc1`, the relative growth is inactive: 1.01.

Consider `c1coc(-c2nc3ccccc3n2CCC2CCCCC2)c1`, for which the relative growth is inactive: 0.924.

As to `CC(C)NC(=O)Nc1ccc2c(c1)C(=O)N([C@H](C)CO)C[C@@H](C)[C@H](CN(C)S(C)(=O)=O)OCCCC[C@@H](C)O2`, the relative growth was inactive: 0.983.

Take `Cc1noc(C)c1NC(=O)N(C)C[C@@H]1Oc2ccc(NC(=O)Nc3ccc(C(F)(F)F)cc3)cc2CC(=O)N([C@@H](C)CO)C[C@H]1C`: the relative growth is inactive: 0.973.

In the case of `C[C@@H]1CN([C@@H](C)CO)C(=O)Cc2cc(NC(=O)Nc3cccc4ccccc34)ccc2O[C@H]1CN(C)Cc1ccccc1`, the relative growth was inactive: 1.02.

For the compound `C[C@H](CO)N1C[C@H](C)[C@H](CN(C)C(=O)Nc2ccccc2)Oc2ccc(NC(=O)Nc3cccc4ccccc34)cc2CC1=O`, the relative growth is inactive: 1.03.

On to `C=CCc1c(C)[nH]c(N)nc1=O`, for which the relative growth was inactive: 1.

As to `Cc1cc2nc3c(=O)[nH]c(=O)nc-3n(CC(O)C(O)C(O)COP(=O)([O-])O)c2cc1C.[Na+]` (stereo not given), the relative growth is inactive: 0.99.

For the compound `C[C@@H]1CN([C@@H](C)CO)C(=O)c2cccc(NC(=O)Nc3ccc4c(c3)OCO4)c2O[C@H]1CN(C)C(=O)Nc1ccc(C(F)(F)F)cc1`, the relative growth is inactive: 0.962.
